PMC6919601, “Identification of Plasmodium dipeptidyl aminopeptidase allosteric inhibitors by high throughput screening” (PLoS ONE, 2019)
The whole screen tested about 110,000 compounds, of which about 230 (0.21%) showed an effect of 50% or more. Some of the results follow.

biological target: DPAP1 (Plasmodium falciparum, UniProt Q8IIJ9); assay: primary screen, percent inhibition; read by cleavage of a fluorogenic dipeptide substrate; higher = more effect of the substance; parameters: species or system P. falciparum D10 trophozoite lysates; single well
Sequence (Q8IIJ9 whole entry, looked up): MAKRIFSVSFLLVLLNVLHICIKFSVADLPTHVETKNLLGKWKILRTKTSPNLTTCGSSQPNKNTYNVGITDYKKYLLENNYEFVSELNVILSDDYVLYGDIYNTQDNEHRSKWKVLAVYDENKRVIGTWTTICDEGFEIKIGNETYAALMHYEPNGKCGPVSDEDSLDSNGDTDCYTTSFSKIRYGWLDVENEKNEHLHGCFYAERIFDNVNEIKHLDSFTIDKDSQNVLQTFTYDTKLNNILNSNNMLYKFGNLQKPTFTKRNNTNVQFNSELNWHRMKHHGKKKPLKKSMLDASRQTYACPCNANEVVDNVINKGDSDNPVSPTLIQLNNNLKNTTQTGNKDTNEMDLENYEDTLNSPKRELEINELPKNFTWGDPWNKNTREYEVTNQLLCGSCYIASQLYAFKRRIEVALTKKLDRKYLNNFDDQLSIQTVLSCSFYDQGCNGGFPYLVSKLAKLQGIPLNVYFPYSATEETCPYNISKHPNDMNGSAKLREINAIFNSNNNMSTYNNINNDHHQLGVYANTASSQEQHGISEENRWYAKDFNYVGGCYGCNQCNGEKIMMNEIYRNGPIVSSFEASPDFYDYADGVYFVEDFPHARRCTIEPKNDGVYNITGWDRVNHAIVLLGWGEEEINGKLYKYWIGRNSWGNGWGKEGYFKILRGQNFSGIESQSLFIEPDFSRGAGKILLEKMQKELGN
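Also: 30 min substrate incubation versus DMSO and 10 µM JCP410 controls.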

Point of comparison: `Cc1cc(Cl)nc(Cl)c1C(=O)NC(=O)NC(C)(C)C`, “% Inhibition @ 10 uM” value -0.703%. Against it:
- Cc1ccc(/C=C(/C#N)c2nc(-c3ccc(-c4ccccc4)cc3)cs2)o1 — higher, 2.13%
- OC1CCCN(Cc2cccc3ccccc23)C1 (centres unmarked) — higher, 1.48%
- COc1cc(C(=O)/N=c2\sc3c(n2C)-c2ccccc2CC3)cc(OC)c1OC — lower, -3.33%
- COc1cc(C2c3c(oc4cc(C)c(C)cc4c3=O)C(=O)N2c2nccs2)cc(OC)c1OC (centres unmarked) — higher, 0.415%
- Cc1ccc(-c2c(O)c(=O)/c2=N\C2CCCC(C)C2C)cc1 (centres unmarked) — higher, 0.309%
- Cc1c(O)c2c3c(cccc3c1O)C(=O)N(c1ccccc1)C2=O — higher, 2.36%
- Cc1ccc(-c2cc(C(=O)Nc3cccnc3)c3ccccc3n2)o1 — lower, -5.06%
- CCO/C(O)=C1/C(C)=NC(=S)NC1c1ccc(OC)cc1 (centres unmarked) — lower, -8.49%
- COc1cccc(C(=O)N(Cc2cccc(Cl)c2)C2CCS(=O)(=O)C2)c1 (centres unmarked) — higher, 6.69%
- CCC(C(=O)Nc1nn2c(-c3ccccc3)nnc2s1)c1ccccc1 (centres unmarked) — lower, -1.56%
- COc1ccc(C(=O)Nc2cc(C#N)c3nc4ccccc4n3c2O)cc1 — higher, 0.032%
- CCC(COc1nnnc2ccccc12)NC(=O)C1CCN(S(C)(=O)=O)CC1 (centres unmarked) — lower, -1.07%
- Cc1csc(NC(=O)C(CCS(C)(=O)=O)N2Cc3ccccc3C2=O)n1 (centres unmarked) — higher, 0.0322%
- COc1ccc(-c2cc(C(=O)Nc3sc(C)c(C)c3C(N)=O)c3ccccc3n2)cc1OC — higher, 9.88%
- Cc1cccc(C)c1CC(=O)N1CCOCC1 — higher, 3.53%
- O=C(COc1ccc(Cl)cc1Cl)NCc1ccccc1 — higher, 3.16%
- N#CC1=C(O)Oc2ccc(N)cc2C1c1ccccc1F (centres unmarked) — higher, -0.25%
- O=C1c2cccc3cccc(c23)N1CN1CCN(c2ccccn2)CC1 — higher, 6.24%
- CC1=C(C(=O)Nc2ccc(Cl)cc2)C(c2ccncc2)n2nc(CCCO)nc2N1 (centres unmarked) — higher, 3.83%
- CC(O)C(=O)NS(=O)(=O)c1ccc(C(C)C)cc1 (centres unmarked) — lower, -8.2%
- COc1ccc(S(=O)(=O)NCc2ccco2)c2cccnc12 — lower, -7.8%
- Fc1ccccc1Nc1nc(-c2ccccc2)cs1 — higher, 3.61%
- NC(=O)C1CCN(C2CC(=O)N(c3ccc(F)cc3)C2=O)CC1 (centres unmarked) — higher, 0.76%
- Cc1ccc(NC(=O)C2CCCN(S(=O)(=O)c3c(C)noc3/C=C/c3cccs3)C2)nc1 (centres unmarked) — higher, 1.72%
- C=CCOC(=O)c1sc(N2C(=O)c3oc4ccccc4c(=O)c3C2c2cccnc2)nc1C (centres unmarked) — lower, -0.828%
- O=C(CCCN1C(=O)c2ccccc2Sc2ncccc21)NCC1CCCO1 (centres unmarked) — higher, 2.86%
- Cc1n[nH]c2c1C(c1ccc(OC(C)C)cc1)C(C#N)=C(N)O2 (centres unmarked) — lower, -6.27%
- O=C1CC(NCc2cccnc2)C(=O)N1c1ccc(Cl)cc1 (centres unmarked) — higher, 0.874%
- COc1ccc(CN2CCc3ccccc3C2)cc1 — higher, 1.55%
- COC(=O)c1ccc(/C=N/c2c(-c3ccco3)nc3ccccn23)cc1 — higher, 7.62%
- CCC(NC(=O)Cn1nnc(-c2ccccc2)n1)C12CC3CC(CC(C3)C1)C2 (centres unmarked) — lower, -2.19%
- O=C(NCc1ccco1)c1ccc(Cl)cc1 — lower, -1.22%
- COc1ccccc1CN1CCN(C(=O)C(c2ccccc2)c2ccccc2)CC1 — higher, 10.1%
- COc1cc2c(cc1OC)C(COc1ccccc1OC)N(C(=O)c1cccc(F)c1)CC2 (centres unmarked) — higher, 8.36%
- c1ccc(-c2nc(-c3ccncc3)no2)cc1 — higher, 0.944%
- COc1ccccc1-c1nnc(C2CCN(C(=O)c3ccccc3)CC2)o1 — lower, -1.08%
- CC1CCN(c2ccc3nnc(CCC(=O)NCc4cccnc4)n3n2)CC1 — lower, -3.43%
- COc1ccc(C(=O)NCC2COc3ccccc3O2)cc1 (centres unmarked) — lower, -2.29%
- COC(=O)c1cc2sc(Cl)cc2n1Cc1ccccc1F — lower, -10%
- Cc1ccc(N2C(=O)CC(NCC(C)c3ccccc3)C2=O)cc1 (centres unmarked) — lower, -0.865%
- FC(F)(F)c1cccc(-c2nnc(-c3ccc4c(c3)OCO4)o2)c1 — higher, 1.38%
- CCN(CC)C(=O)COc1ccc(C2C(C#N)=C(N)Oc3[nH]nc(COC)c32)cc1OC (centres unmarked) — higher, 16.1%
- O=c1oc2c3c(ccc2c2c1CCCC2)OCN(Cc1ccco1)C3 — lower, -1.96%
- O=C(O)c1ccc(/C=C2\SC(=O)N(CC(=O)N3CCOCC3)C2=O)cc1 — higher, 2.33%
- COCCNC(=O)C1CCN(Cc2cnn(-c3ccccc3)c2-n2cccc2)CC1 — higher, 0.623%
- Cc1cccc(-n2nc(C)c(C(=O)N3CCc4ccccc4C3)c2-n2cccc2)c1 — lower, -3.61%
- O=C(O)CSCc1nc2ccccc2nc1O — higher, 6.13%
- O=S(=O)(c1ccccc1C(F)(F)F)N1CCC(Oc2ccc(-n3cnnn3)cc2)CC1 — higher, 2.29%
- Cc1cc2c(cc3c(SCC(=O)NCCc4ccccc4)nncn32)o1 — lower, -2.6%
- CC(CCc1ccccc1)N1CCN(c2ccccc2)CC1 (centres unmarked) — higher, -0.0908%
- CN1CCN(CCc2nnc(S)n2-c2ccc(OCc3ccccc3)cc2)CC1 — higher, 11.3%
- CC(C)OCCCNC(=O)C1CC(=O)N(C2CCCCC2)C1 (centres unmarked) — higher, 3.24%
- Cc1ccc(Nc2nc(N)nc(CN3CCN(c4ccccc4)CC3)n2)cc1 — higher, -0.318%
- CS(=O)(=O)c1sc2nc(-c3ccc(Br)cc3)cc(-c3ccccc3)c2c1N — lower, -1.93%
- N#CCCN(CCN1CCCC1)S(=O)(=O)c1cccc2nsnc12 — higher, 6.31%
- C/C(=N\OC(=O)c1c(-c2ccccc2Cl)noc1C)c1ccncc1 — lower, -1.4%
- CS(=O)(=O)N1N=C(c2ccco2)CC1c1ccccc1Cl (centres unmarked) — lower, -3.19%
- CCOC(=O)N1CCN(C(=O)C2CCC(CNS(=O)(=O)c3ccccc3)CC2)CC1 (centres unmarked) — lower, -0.971%
- Brc1ccccc1CN1CCN(c2ccccn2)CC1 — higher, 2.23%
- COc1ccc(C2CC(c3ccccc3OC(F)F)n3ncnc3N2)cc1 (centres unmarked) — lower, -3.37%
- CCc1nnc(NC(=O)C2CCN(C(=O)c3cc4sccc4n3Cc3ccc(F)cc3)CC2)s1 — lower, -5.19%
- CCOC(=O)c1c(S(=O)(=O)Nc2ccccn2)c(C)n(C)c1C — higher, 1.84%
- CN(C)CC(=O)c1ccc(-c2ccccc2)cc1 — lower, -3.44%
- CCCn1c2ccccc2c2cnn(CC(=O)NCCCN3CCCC(C)C3)c(=O)c21 (centres unmarked) — lower, -2.71%
- Fc1ccccc1CNC1CCN(Cc2ccccc2)CC1 — higher, 3.35%
- CCCN(C(=O)c1ccccc1OCC)c1nc(-c2ccccc2)cs1 — higher, 0.128%
- CCOc1ccc(Cl)cc1CNCCSc1nnnn1-c1ccccc1 — lower, -1.11%
- O=S1(=O)N=C(Nc2cc(Cl)ccc2Cl)c2ccccc21 — higher, 0.98%
- CC1=C(C(=O)OC2CCCC2)C(c2ccc(Br)cc2)NC(=O)N1 (centres unmarked) — higher, 0.565%
- OC(COc1ccc2oc3c(c2c1)CCCC3)CN1CCN(c2ccccc2)CC1 (centres unmarked) — lower, -6.82%
- COCC(C)NC(=O)c1c(-c2c(Cl)cccc2Cl)noc1C (centres unmarked) — lower, -8.41%
- Cc1nc2c(-c3ccccc3)c(C)nn2c(C)c1CCC(=O)N1CCC2(CC1)OCCO2 — lower, -4.1%
- Cc1ccc(Cn2c(C)c(CNC3CCCCC3C)c(C(=O)O)c2C)cc1 (centres unmarked) — higher, 2.99%
- CCC(C)NC(=O)c1cc(-c2ccc(Cl)c(Cl)c2)on1 (centres unmarked) — lower, -2.47%
- N#Cc1c(N)c2c(c(O)c1C#N)C(=O)c1ccccc1C2=O — higher, 1.08%
- COc1cc2c(cc1OC)CN(Cc1cccnc1)CC2 — higher, 4.04%
- Cc1ccc(NC(=O)C(C)Oc2ccccc2)cc1 (centres unmarked) — higher, 2.64%
- CC(C)Oc1ccccc1C1CC(=O)NC2=C1C(=O)CC(C)(C)C2 (centres unmarked) — lower, -3.87%
- Cc1cccc(C[C@@H](NC(=O)OCc2ccccc2)C(=O)NCC#N)c1 — lower, -6.56%
- Cc1cc(N2C(=O)c3ccc(C(=O)N4CCCCCC4)cc3C2=O)no1 — higher, 0.868%
- CCOc1ccc(/C=C2\Cc3ccccc3C2=O)cc1 — higher, 5.5%
- NC(=O)c1ccc(NC(=O)c2ccccc2C(=O)O)cc1 — lower, -2.03%
- CCCS(=O)(=O)N1CCCC(C(=O)NCCCN(Cc2ccccc2)C(C)C)C1 (centres unmarked) — higher, 3.24%
- Cc1ccc(OCCn2c(SCC(N)=O)nc3ccccc32)cc1 — higher, 4.1%
- CCCCC1(C)NC(=S)N(c2ccccc2)N1 (centres unmarked) — higher, 0.0345%
- O=S(=O)(NCCOc1ccc(Cl)cc1)c1ccc2oc3ccccc3c2c1 — higher, 5.3%
- c1ccc(-c2ccc(-c3cn4c5ccccc5n(CCN5CCCCC5)c4n3)cc2)cc1 — higher, 1.27%
- O=C(CSc1nc2ccccc2[nH]1)Nc1ccc(Br)c(Cl)c1 — higher, 2.76%
- CC(C)c1ccc(NC(=O)c2ccc(Br)cc2)cc1 — lower, -3.56%
- CSc1cnn(-c2ccccc2)c(=O)c1SC — higher, 1.83%
- O=C(Nc1cccc(Oc2ccc3c(c2)C(=O)NC3=O)c1)c1ccc(Br)o1 — lower, -3.01%
- CC(=O)N1CCN(c2ccc(NCc3ccc4c(c3)OCO4)cc2)CC1 — higher, -0.28%
- COc1ccc(CNC(=O)CC2SC(NC3CCCCC3)=NC2=O)cc1 (centres unmarked) — higher, 10.8%
- Cc1n[nH]c(C)c1CCOc1ccc(C(C)C)cc1 — higher, -0.553%
- CC(C)c1ccc(-c2nc(O)c3c4c(sc3n2)CCCC4)cc1 — higher, 2.05%
- CN(C(=O)CCCN1C(=O)c2ccccc2C1=O)C1CC(C)(C)N(C)C(C)(C)C1 — higher, 2.18%
- CC(C)(C)c1ccc(S(=O)(=O)NCc2ccccn2)cc1 — higher, 5.03%
- Cc1noc(/C=C/c2ccco2)c1S(=O)(=O)N1CCC(C(=O)NCCc2ccccc2)CC1 — higher, 2.14%
- CCC(Sc1nnc(NC(C)=O)s1)C(=O)NC1=NN=C(c2ccc(C)cc2)CS1 (centres unmarked) — higher, 4.3%
- Cc1nc2c(-c3ccc(F)cc3)c(C)nn2c(C)c1CCC(=O)NCCC(C)C — higher, 2.93%
